{
  "source": "the supplement of paper PMC4723716",
  "note": "The full ranking holds about 3,600 compounds; the median of “viability index relative to DMSO control” is about 0.81, and the lowest 2% start at about 0.13. The list shows a part of the results.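 Further: 384-well serum-free SaLSSA: MitoTracker Red CMXRos staining with saponin lysis, high-content imaging, treated-well particle count divided by plate-mean count of DMSO wells.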",
  "data": [
    {"system": "Plasmodium falciparum NF54 stage V gametocytes", "test": "viability index relative to DMSO control (fraction); higher = less gametocyte killing", "details": "1.25 µM, incubation time: 72 h", "values": [
      {"smiles": "Nc1nonc1-n1nnc(C(=O)NN=Cc2cccc(Cl)c2)c1-c1ccccc1", "viability index": 0.623},
      {"smiles": "CCOC(=O)c1sc(=S)n(-c2ccc(N(C)C)cc2)c1N", "viability index": 0.952},
      {"smiles": "Oc1ccc2ccccc2c1CNc1nc2ccccc2[nH]1", "viability index": 0.865},
      {"smiles": "CCN(CC)CCNc1ncnc2c1[nH]c1ccc(F)cc12", "viability index": 0.991},
      {"smiles": "CC(C)c1ccc(NC(=O)c2ccc(NCCCN3CCN(c4cccc(Cl)c4)CC3)c([N+](=O)[O-])c2)cc1", "viability index": 0.643},
      {"smiles": "O=c1c2cnn(-c3ccccc3)c2nc(-c2ccccc2F)n1-c1ccc(Br)cc1", "viability index": 0.894},
      {"smiles": "COc1ccccc1-n1nnnc1SCC(=O)Nc1cc([N+](=O)[O-])ccc1C", "viability index": 0.935},
      {"smiles": "O=C(Nc1ccc(-c2nc3cc(NC(=O)c4ccc(Cl)cc4)ccc3[nH]2)cc1)c1ccc(Cl)cc1", "viability index": 0.754},
      {"smiles": "CCn1ncc(CN2CCC(C(=O)Nc3ccccc3-c3cccc(OC)c3)CC2)c1C", "viability index": 0.75},
      {"smiles": "CN1CCc2c(C#N)c(N3CCCC3)nc(N3CCCC3)c2C1", "viability index": 1.04},
      {"smiles": "COc1cccc(C(=O)C[n+]2cc(-c3ccc(Cl)cc3)n3c2CCC3)c1", "viability index": 0.991},
      {"smiles": "COc1cccc(CN2CCN(C3CCCC(C)C3)CC2)c1OC", "note": "(stereo not given)", "viability index": 1.07},
      {"smiles": "CCOC(=O)C1=C(C)N=c2sc(=Cc3cc(Br)ccc3O)c(=O)n2C1c1ccccc1", "note": "(stereo not given)", "viability index": 0.736},
      {"smiles": "CCOC(=O)c1c(NC(=O)C(C)Sc2nnc(CNC(=O)c3ccco3)n2-c2cccc(C(F)(F)F)c2)sc2c1CCC2", "note": "(stereo not given)", "viability index": 0.751},
      {"smiles": "O=C(NC1CC1)c1ccc(N2C(=O)C3C4c5ccccc5C(c5ccccc54)C3C2=O)cc1", "note": "(stereo not given)", "viability index": 0.632},
      {"smiles": "COc1ccc(Nc2nc(NCc3ccco3)c3ccccc3n2)cc1", "viability index": 0.633},
      {"smiles": "Cc1cc(C)nc(SCc2cc(=O)c(OC(=O)c3cccc([N+](=O)[O-])c3C)co2)n1", "viability index": 1.07},
      {"smiles": "O=C1c2ccccc2-c2nnc(-c3ccc(Br)cc3)cc21", "viability index": 1.05},
      {"smiles": "COc1ccc2[nH]c3c(c2c1)CCNC3c1ccc(OC)c(CSc2nnc(-c3ccccc3)o2)c1", "note": "(stereo not given)", "viability index": 1.1},
      {"smiles": "O=c1c2c([nH]c3ccccc13)CCCCCCCCCC2", "viability index": 0.651},
      {"smiles": "CCC12C(=O)C(CC)(C(c3ccccc3)=C1c1ccccc1)C1C(=O)N(c3cccc(C(F)(F)F)c3)C(=O)C12", "note": "(stereo not given)", "viability index": 0.772},
      {"smiles": "O=C(Nc1ccc(Br)cc1C(=O)c1ccccc1)c1cc2nc(-c3cccs3)cc(C(F)(F)F)n2n1", "viability index": 0.653},
      {"smiles": "COc1ccc(CN(Cc2cc3cccc(C)c3[nH]c2=O)C(=S)NC2CCCCC2)cc1", "viability index": 0.824},
      {"smiles": "CCN(CC)c1nc(NN=Cc2cccc([N+](=O)[O-])c2OC)nc(Nc2ccccc2)n1", "viability index": 0.834},
      {"smiles": "CC(C)(C)c1ccc2c(c1)CN(C1CCCCC1)CO2", "viability index": 0.332},
      {"smiles": "N#Cc1c(N)nc(C(Cl)(Cl)Cl)nc1-c1ccccc1", "viability index": 1.27},
      {"smiles": "O=C(N1CCCCC1)n1nnc2ccccc21", "viability index": 0.694},
      {"smiles": "Cc1ccc2nc3nc4c(C)cccc4c(N)c3cc2c1", "viability index": 0.387},
      {"smiles": "Cc1c(Cc2ccccc2)sc(N=Cc2ccc(Br)s2)c1C(N)=O", "viability index": 1.02},
      {"smiles": "CCOC(=O)C1=C(C)NC2=C(C(=O)C(C(=O)OCC)C(c3ccccc3OC)C2)C1c1cc(OC)c(OC)c(OC)c1", "note": "(stereo not given)", "viability index": 0.934},
      {"smiles": "CCCCN(CCCC)C(=O)Cn1ccc(=N)c2ccccc21", "viability index": 0.58},
      {"smiles": "Cc1c(CN2CCC(N3CCC(C(=O)NC4CC4)CC3)CC2)[nH]c2c(Cl)cccc12", "viability index": 0.865},
      {"smiles": "CC(=O)N(C1=C(N2CCCCC2)C(=O)c2ccccc2C1=O)c1cccc(F)c1", "viability index": 0.833},
      {"smiles": "CSc1nc(SC)c2c3c(sc2n1)CN(C)CC3", "viability index": 0.78},
      {"smiles": "COc1ccccc1N1C(=N)SC(=Cc2ccc(OCc3ccccc3F)cc2)C1=O", "viability index": 0.779},
      {"smiles": "COC(=O)c1c(-c2c(Cl)cccc2Cl)noc1NC(=O)NN1CCCCC1", "viability index": 1.1},
      {"smiles": "NC(=O)c1ccc2[nH]c3c(c2c1)CCCC3", "viability index": 0.789},
      {"smiles": "CCOC(=O)C1CCN(C(c2cc3cc(OC)c(OC)cc3[nH]c2=O)c2nnnn2Cc2ccccc2)CC1", "note": "(stereo not given)", "viability index": 0.878},
      {"smiles": "CC(=O)N1CCOC1C(C)(C)CC=C(C)CCC=C(C)C", "note": "(stereo not given)", "viability index": 0.822},
      {"smiles": "Nc1ccc(C(=O)NN=Cc2cccc([N+](=O)[O-])c2)cc1", "viability index": 0.885},
      {"smiles": "CC(=O)Nc1c(C)cc(Cl)cc1Cl", "viability index": 0.859},
      {"smiles": "COc1ccc2[nH]c(=O)c(CN(C(=S)Nc3ccccc3OC)C3CCCC3)cc2c1", "viability index": 0.642},
      {"smiles": "Nc1ccc(-c2nc3cc(Oc4ccc5[nH]c(-c6ccc(N)cc6)nc5c4)ccc3[nH]2)cc1", "viability index": 0.811},
      {"smiles": "CCSc1ccc2ccccc2[n+]1CC", "viability index": 0.864},
      {"smiles": "Cc1ccc(C2CC(C(F)(F)F)n3ncc(C(=O)Nc4ccc(OC(F)(F)F)cc4)c3N2)cc1", "note": "(stereo not given)", "viability index": 0.634},
      {"smiles": "COc1cccc(-c2ccc(O)c(CN3CCCCC3)c2)n1", "viability index": 1.11},
      {"smiles": "CCN1C(=Cc2sc3ccc(O)cc3[n+]2CC)C=Cc2cc(C)ccc21", "viability index": 0.577},
      {"smiles": "COc1ccc2c(c1)-c1c(ssc1=S)C(C)(C)N2C(=O)c1ccccc1F", "viability index": 0.898},
      {"smiles": "COc1cc2nc(NCC3CCCO3)n3nc(-c4ccccc4)nc3c2cc1OC", "note": "(stereo not given)", "viability index": 0.635},
      {"smiles": "CC(C)CC(NC(=O)OC(C)(C)C)C(=O)NC(Cc1ccccc1)C(=O)OCc1ccccc1", "note": "(stereo not given)", "viability index": 0.797},
      {"smiles": "CC(=NNc1nc2ccccc2s1)c1ccc([N+](=O)[O-])cc1", "viability index": 0.933},
      {"smiles": "CCN1C(=Cc2ccc3cc(OC)ccc3[n+]2CC)Sc2cc(C)ccc21", "viability index": 0.29},
      {"smiles": "Cc1cc(Nc2ccc(C)c(F)c2)n2nc(C)nc2n1", "viability index": 0.9},
      {"smiles": "Cc1ccc(NC(=O)N(CCCN(C)C)Cc2cc3cc4c(cc3[nH]c2=O)OCO4)cc1", "viability index": 0.822},
      {"smiles": "CC(C)(C)c1ccc(-c2nc(C34CC5CC(CC(C5)C3)C4)cs2)cc1", "viability index": 0.942},
      {"smiles": "COc1ccc([N+](=O)[O-])cc1N(CC1CO1)S(=O)(=O)c1ccc(C)cc1", "note": "(stereo not given)", "viability index": 0.717},
      {"smiles": "COc1ccc(C2CC(=O)C3=C(C2)NC(C)=C(C(=O)OC2CCCC2)C3c2ccc(F)cc2)cc1", "note": "(stereo not given)", "viability index": 0.444},
      {"smiles": "COc1ccc(CN(C)C(C)C)cc1OC1CCN(C(=O)C2CCC2)CC1", "viability index": 0.875},
      {"smiles": "CCOC(=O)C1CCCN(C(=O)c2c(C)oc3c2C(=O)c2ccccc2C3=O)C1", "note": "(stereo not given)", "viability index": 0.726},
      {"smiles": "CCN1C(=O)c2ccccc2Sc2ccc(NC(=O)NCCCOC(C)C)cc21", "viability index": 1.02},
      {"smiles": "c1ccc(-c2nc3cc4nc(-c5ccccc5)[nH]c4cc3[nH]2)cc1", "viability index": 1.15},
      {"smiles": "N#Cc1c2c(c(NCc3ccccn3)n3c1nc1ccccc13)CCCC2", "viability index": 0.812},
      {"smiles": "CCOc1ccc(-c2nc(NC(=O)CS(=O)(=O)c3ccccc3)sc2C)cc1", "viability index": 0.512},
      {"smiles": "COc1ccc(N2C(=O)C3C(C2=O)C2(c4ccccc4)C(=O)C3(c3ccccc3)C(c3ccc4c(c3)OCO4)=C2c2ccc3c(c2)OCO3)c([N+](=O)[O-])c1", "note": "(stereo not given)", "viability index": 0.776},
      {"smiles": "O=S(=O)(Nc1ccc(F)cc1)N1CCCCCC1", "viability index": 0.882},
      {"smiles": "CCn1c(C=CN(C)c2ccccc2)[n+](CC)c2cc(Cl)ccc21", "viability index": 1},
      {"smiles": "O=C1NCCN1C(=O)C(c1ccccc1)c1ccccc1", "viability index": 1.08},
      {"smiles": "Cn1c2ccncc2c2cc([N+](=O)[O-])ccc21", "viability index": 1.13},
      {"smiles": "Cc1ccc(-c2cc(C(F)(F)F)n3ncc(C(=O)Nc4cc(Cl)ccc4O)c3n2)cc1", "viability index": 0.554},
      {"smiles": "CCC1(C)CC(CCNCc2ccccc2O)(c2ccc(OC)cc2)CCO1", "note": "(stereo not given)", "viability index": 0.764},
      {"smiles": "CC[n+]1c(C=CN(C)c2ccccc2)sc2ccc(Cl)cc21", "viability index": 0.957},
      {"smiles": "COc1cccc2cc(-c3csc(NC(=O)CCC(=O)NC4CCCC4)n3)c(=O)oc12", "viability index": 0.747},
      {"smiles": "CCCC[n+]1c(-c2ccccc2)cc(-c2ccccc2)cc1-c1ccccc1", "viability index": 0.692},
      {"smiles": "O=C(CCl)Nc1ccc(N2CCCCCC2)cc1", "viability index": 0.552},
      {"smiles": "Cc1ccccc1-c1cccc(CN2CCCCC2CCn2cc(C(=O)NC3CC3)nn2)c1", "note": "(stereo not given)", "viability index": 0.971},
      {"smiles": "Sc1nnc(-c2ccncc2)n1CCc1ccccc1", "viability index": 0.847},
      {"smiles": "CCOc1ccc(CN2CCN(CC(O)COc3ccc(OCC(O)CN4CCN(Cc5ccc(OCC)cc5)CC4)cc3)CC2)cc1", "note": "(stereo not given)", "viability index": 0.815},
      {"smiles": "CC(=O)N(C1=C(N(C)C)C(=O)c2ccccc2C1=O)c1ccc(Cl)cc1", "viability index": 0.208},
      {"smiles": "CCOC(=O)C1=C(CC)NC2=C(C(=O)CC(C)(C)C2)C1c1ccc(Br)cc1", "note": "(stereo not given)", "viability index": 1.02},
      {"smiles": "CC(C)c1ccc(NC(=O)c2ccc(NCCCN(C)Cc3ccccc3)c([N+](=O)[O-])c2)cc1", "viability index": 1.54},
      {"smiles": "COc1nncc(-c2cnnc(SC)n2)n1", "viability index": 0.665},
      {"smiles": "CCc1cc2c(NCCN3CCCCC3)ncnc2s1", "viability index": 0.989},
      {"smiles": "O=C1C2C(C(=O)N1c1cccc3ccccc13)C1C=CC2C12CC2", "note": "(stereo not given)", "viability index": 0.785},
      {"smiles": "Cc1ccc(NC(c2ccccc2)(c2ccccc2)c2ccccc2)cc1C", "viability index": 0.466},
      {"smiles": "CCN1CCN(c2cc(C)c3cc(NC(=O)c4cc(OC)cc(OC)c4)ccc3n2)CC1", "viability index": 0.94},
      {"smiles": "CC(C)C1N=C2c3ccccc3N=C(SCC(=O)Nc3cc(C(F)(F)F)ccc3Cl)N2C1=O", "note": "(stereo not given)", "viability index": 1.04},
      {"smiles": "Nc1ccc2nc(-c3cccc(-c4nc5ccc(N)cc5s4)c3)sc2c1", "viability index": 1.03},
      {"smiles": "Cc1ccc(-c2noc(C3CCN(C(=O)Nc4ccc(C#N)cc4)CC3)n2)o1", "viability index": 0.957},
      {"smiles": "Cc1cc(S(=O)(=O)N2CCN(Cc3ccccc3)CC2)ccc1-n1cnnn1", "viability index": 1},
      {"smiles": "CCOc1ccc(C=NNC(=O)CCn2nnc3ccccc32)cc1", "viability index": 0.822}
    ]}
  ]
}
